# Measured values reported in PubChem BioAssay AID360 (National Center for Advancing Translational Sciences (NCATS), 2006).
# In all, about 48,000 compounds went through this assay and about 550 (1.1%) were called active. Roughly 4% stayed inconclusive and do not appear here. Rule as the data show it: active = potency below about 15 µM; inconclusive = mostly about 16 µM to 33 µM; inactive = weaker than that. Some of the results follow.
# Target: Lysosomal acid glucosylceramidase (Homo sapiens) (UniProt P04062)
# UniProt P04062, sequence (P04062 whole entry, looked up): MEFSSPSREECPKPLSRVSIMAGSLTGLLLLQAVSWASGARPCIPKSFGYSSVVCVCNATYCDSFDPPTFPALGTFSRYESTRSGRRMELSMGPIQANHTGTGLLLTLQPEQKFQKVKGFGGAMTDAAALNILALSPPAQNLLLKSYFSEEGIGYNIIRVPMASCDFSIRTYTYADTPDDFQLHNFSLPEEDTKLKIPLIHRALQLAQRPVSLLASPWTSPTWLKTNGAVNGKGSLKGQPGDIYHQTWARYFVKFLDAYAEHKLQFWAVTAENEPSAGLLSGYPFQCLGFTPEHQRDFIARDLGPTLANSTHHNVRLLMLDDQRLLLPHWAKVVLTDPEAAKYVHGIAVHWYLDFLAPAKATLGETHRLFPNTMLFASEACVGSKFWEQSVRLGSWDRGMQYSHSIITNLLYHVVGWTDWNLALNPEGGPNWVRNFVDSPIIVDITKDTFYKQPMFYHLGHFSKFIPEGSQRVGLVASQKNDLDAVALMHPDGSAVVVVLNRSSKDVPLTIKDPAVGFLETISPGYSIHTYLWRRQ
# Test: Glucocerebrosidase;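 also: the screen sought inhibitors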
# Details: purified enzyme, resorufin glucoside fluorescence (screen aimed at inhibitors), 20 min
# How it was run: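 Compounds titrated against 0.2 nM normal enzyme, 30 uM resorufin beta-D-glucopyranoside substrate, citrate/phosphate buffer with taurocholate and tween-20, pH 5.9. Reaction ran 20 min at room temperature; fluorescence (Ex 548/Em 600) gave AC50.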
# Potency is read from the fitted curve at half-maximal effect.
row,SMILES,Potency
1,Cc1cc([P+](=O)O)c(C)n1-c1ccc(Br)cc1,inactive: > 76.9 µM
2,COC(=NC1CCCC1)C(O)c1c[nH]c2ccccc12 (stereo unspecified),inactive: > 76.9 µM
3,CN(C=O)CP(=O)(O)CN(C)C=O,inactive: > 76.9 µM
4,COc1ccc(CN2C(=O)CC(=O)NC2=O)cc1,inactive: > 76.9 µM
5,Cc1sc2ncn(CC(=O)NCC(=O)N3CCC4(CC3)OCCO4)c(=O)c2c1C,inactive
6,CCCn1nc2ccccc2c1P(=O)(N1CCOCC1)N1CCOCC1,inactive: > 76.9 µM
7,CCn1c(=O)cc(OCC(=O)N2CCC3(CC2)OCCO3)c2ccccc21,inactive: > 76.9 µM
8,CC1N(O)C2CCCCCC2N1O (stereo unspecified),inactive: > 76.9 µM
9,NCC(CC(=O)O)c1ccc(Cl)cc1 (stereo unspecified),inactive: > 76.9 µM
10,Cc1cc(N2C(=O)C3CCCN3C2c2sccc2C)no1 (stereo unspecified),inactive: > 76.9 µM
11,Cc1nnc(SCc2nc3ccccc3c(=O)n2-c2ccccc2Cl)n1N,inactive: > 76.9 µM
12,CC1(C)CC(=O)C=C(NCCN2CCN(C(=O)Cc3ccc(Cl)cc3)CC2)C1,inactive: > 76.9 µM
13,CCC(=NC1CCN(Cc2ccccc2)CC1)c1c(O)[nH]c(=O)[nH]c1=O,inactive: > 76.9 µM
14,COc1cc2c(cc1OC)C(C(=O)N1CCC3(CC1)OCCO3)C(c1ccccc1F)N(C)C2=O (stereo unspecified),inactive: > 76.9 µM
15,c1cncc(C2CC(c3cccs3)n3ncnc3N2)c1 (stereo unspecified),inactive: > 76.9 µM
16,CC(C)(C)C(O)C(Oc1ccc(Cl)cc1)n1cncn1 (stereo unspecified),inactive: > 76.9 µM
17,O=c1[nH]c(=O)n(C2CCCCCC2)c(O)c1C=NCC1CCCO1 (stereo unspecified),inactive: > 76.9 µM
18,O=C(Cn1c(=O)c(C(F)(F)F)nc2ccccc21)N1CCC2(CC1)OCCO2,inactive: > 76.9 µM
19,Cc1cccc(C)c1NC1=NCCCCS1,inactive: > 76.9 µM
20,CCCC(C)C1(CC)C(=O)NC(=Nc2ccccc2OC)NC1=O (stereo unspecified),inactive: > 76.9 µM
21,O=C(CCc1nc(-c2ccccc2F)no1)N1CCC2(CC1)OCCO2,inactive: > 76.9 µM
22,O=C(c1cccs1)N1C2CCC1CC(O)(c1cccnc1)C2 (stereo unspecified),inactive: > 76.9 µM
23,O=C(COc1ccccc1)N1CCN(C2CCCC2)CC1,inactive: > 76.9 µM
24,COc1ccc(N=C(C)c2c(O)n(C)c(=O)n(C)c2=O)c(OC)c1,inactive: > 76.9 µM
25,CN1C(=O)N(C)C(=O)C2(Cc3c(nc4ccccn4c3=O)N3CCc4ccccc4C32)C1=O (stereo unspecified),inactive: > 76.9 µM
26,CC(C)n1cc(C(=O)N(CC(=O)NC2CCCC2)Cc2ccccc2)cn1,inactive: > 76.9 µM
